Numbering of substitutions follows the chain as printed.
B1: His6-(Z06608)2-Cys: dimeric Z06608 with N-terminal His6 tag and C-terminal Cys (protein)
chain: MGSSHHHHHHLQVDAKYAKELHHAFREIKFLPNLTFHQRLAFIVKLDDDPSQSSELLAEAKKLNDAQAPKVDAKYAKELHHAFREIKFLPNLTFHQRLAFIVKLDDDPSQSSELLAEAKKLNDAQAPKVDC
B2: His6-(Z06638)2-Cys: dimeric Z06638 with N-terminal His6 tag and C-terminal Cys (protein)
chain: B1 chain with H22V, H23N, R26S, F30A, F36L, H80V, H81N, R84S, F88A, F94L
B3: His6-(Z06650)2-Cys: dimeric Z06650 with N-terminal His6 tag and C-terminal Cys (protein)
chain: MGSSHHHHHHLQVDAKYAKEFKLALQEIHYLPNLTLDQRLAFILKLDDDPSQSSELLAEAKKLNDAQAPKVDAKYAKEFKLALQEIHYLPNLTLDQRLAFILKLDDDPSQSSELLAEAKKLNDAQAPKVDC
B4: (Z06677)2-Cys: dimeric Z06677 with C-terminal Cys, GSSLQ-[Z06677][Z06677]-VDC (SEQ ID NO: 187) (protein)
chain: GSSLQVDAKYAKELKVAFKEINTLPNLTHQQRIAFIIKLDDDPSQSSELLAEAKKLNDAQAPKVDAKYAKELKVAFKEINTLPNLTHQQRIAFIIKLDDDPSQSSELLAEAKKLNDAQAPKVDC

How the values were obtained:
[1] = system: PEP08517; test: Column study I: spin columns, Z variant-coupled SulfoLink resins, pure sample; assay type: binding; conditions: for elution profile in column study I: SulfoLink resin, wash PBS/Tris, elution pH 4 and pH 2.5, A280
Protocol: 1 mg of each lyophilized ABD binding Z variant Z06608, Z06620, Z06638, Z06650, Z06677, Z06678 and Z06695, in the format His6-(Z#####)2-Cys produced as described in Example 2, was resuspended in a reducing buffer (50 mM Tris-HCl, 5 mM EDTA, 20 mM DTT, pH 8.5) and incubated at RT for 2 h. Reduced protein solutions were transferred to a coupling buffer (50 mM Tris-HCl, 5 mM EDTA, pH 8.5) including 50 mM DTT, using size exclusion chromatography, and then mixed with portions of 0.2 ml SulfoLink Coupling Resin (Thermo Fisher Scientific, cat. no. 20401). This procedure enables site-directed reaction between the thiol groups of the C-terminal cysteine residues of the ABD binding Z variants and the iodoacetyl groups of the resin, forming a covalent thioether bond. The coupling reaction was carried out according to the instructions by the manufacturer. The degree of coupling, defined as mg of coupled ABD binding Z variant per ml of resin, was determined as follows: The amount of coupled ABD binding Z variant was calculated by subtracting the amount of uncoupled material from the original amount of sample, based on concentrations obtained by spectrophotometric measurements of the absorbance at 280 nm. The amount of coupled ABD binding Z variant in mg was then divided with the volume of the SulfoLink Coupling Resin.
A first column study was performed to test binding, wash and elution properties of each of the seven ABD binding Z variants coupled to resin and by using a previously purified sample of the ABD fusion protein PEP08517. PEP08517 comprises the albumin binding domain PP013 (SEQ ID NO:160) fused at its N-terminus to a cytokine binding variant of protein Z. 0.1 ml portions of the resins were transferred to test tubes and 0.1 ml of a pure sample of PEP08517 at 2 mg/ml in coupling buffer was added. The tubes were incubated on a rotating wheel for 1 h at RT. Each sample-resin mix was transferred to an empty spin column. Unbound protein was collected by centrifugation (flow-through, FT). 0.1 ml of different solutions, specified in Table 1, were thereafter added to wash and subsequently elute bound PEP08517 molecules. Each wash and elution fraction was collected by centrifugation.
Collected fractions were analyzed in a spectrophotometer by measuring the absorbance at 280 nm.

[2] = system: PEP06548; test: Purification of PEP06548 on anti-ABD agarose; assay type: binding
Protocol: Pelleted E. coli cells harboring soluble PEP06548 were suspended in TST-buffer supplemented with 27 U/ml Benzonase®. Cells were disrupted by sonication and the cell debris removed by centrifugation. The C-terminal cysteines of the PEP06548 sample molecules were reduced by addition of DTT to a final concentration of 20 mM, followed by incubation for 30 min at RT. Chromatography was performed using an ÄKTAexplorer 100 system. The clarified and reduced sample was applied on an XK-16 column packed with 9 ml anti-ABD agarose and pre-equilibrated with TST. This batch of anti-ABD agarose was prepared essentially as described in Example 6, except for a lower ligand density of approximately 2.3 mg (Z06677)2-Cys per ml of resin. The column was washed with 5.5 CV of TST followed by 3.3 CV of 5 mM NH4Ac pH 5.5. Bound protein was eluted by applying 2.9 CV of 0.1 M HAc, pH 2.9. Fractions were collected for further analyses by SDS-PAGE and HPLC-MS.

| Molecule | elution step releasing most of the sample ([1]; 0.5 M HAc, pH 2.5, first (a) or second (b) addition) | elution profile in column study I [1] | purified PEP06548 obtained per ml of resin ([2]; ligand density approximately 2.3 mg (Z06677)2-Cys per ml of resin) | PEP06548 molecule per (Z06677)2-Cys ligand ([2]; ligand density approximately 2.3 mg per ml of resin) |
| --- | --- | --- | --- | --- |
| B1 | eluted most of the sample at the second addition of pH 2.5 buffer | most favorable elution profile | – | – |
| B2 | – | most favorable elution profile | – | – |
| B3 | – | most favorable elution profile | – | – |
| B4 | – | – | 3.7 mg per ml of resin | approximately one |

— patent US9745340B2, “Method for the separation of proteins containing an albumin-binding” (AFFIBODY AB, priority 2012, dated 2017)
